The text below walks through data of the GPR68 mutational scans of Howard et al. (2025).

Sequences and labels used below:
B1: GPR68, Q15743 (parent)
chain: MGNITADNSSMSCTIDHTIHQTLAPVVYVTVLVVGFPANCLSLYFGYLQIKARNELGVYLCNLTVADLFYICSLPFWLQYVLQHDNWSHGDLSCQVCGILLYENIYISVGFLCCISVDRYLAVAHPFRFHQFRTLKAAVGVSVVIWAKELLTSIYFLMHEEVIEDENQHRVCFEHYPIQAWQRAINYYRFLVGFLFPICLLLASYQGILRAVRRSHGTQKSRKDQIQRLVLSTVVIFLACFLPYHVLLLVRSVWEASCDFAKGVFNAYHFSLLLTSFNCVADPVLYCFVSETTHRDLARLRGACLAFLTCSRTGRAREAYPLGAPEASGKSGAQGEEPELLTKLHPAFQTPNSPGSGGFPTGRLA

The variants in series [1] derive from B1. In words: cAMP reporter score (Enrich2 score, wild type = 0); higher = more signal; HEK293T, FACS bins.
Variants of B1 are the subject of series [2]. In words: surface expression score (Enrich2 score, wild type = 0); higher = more signal; HEK293T, FACS bins.

Scores whose standard error is large were omitted. The source holds two more conditions with little spread; they are left out. Read del as a deletion of the residues named and ins as an insertion between two positions. For part of these data: How much ogerin was present is not stated here.

With V144_I145insG, the cAMP reporter score in series [1] (pH 5.5) is -0.585; in series [1] (pH 6) it was 0.094; in series [1] (pH 6, modulator: ogerin), -2.4; in series [1] (pH 6.5, modulator: ogerin) it was -1.43. The surface expression score in series [2] was -2.07.
The matching figures for I145_W146insG: -1.53, -0.553, -2.07, -0.868 and -2.33.
Taken in the same sequence, the figures for V143_V144insGSG were -1.39, -1.51, -1.56, -0.684 and -2.15.
The matching figures for V141_V143del: -1.43, -0.875, -1.07, -0.215 and -2.64.
Take S142del: the cAMP reporter score in series [1] (pH 5.5) is -1.8; in series [1] (pH 6), -0.845; in series [1] (pH 6, modulator: ogerin), -1.64; in series [1] (pH 6.5, modulator: ogerin), -0.661. Also, the surface expression score in series [2] was -2.25.
With L135_K136del, the cAMP reporter score in series [1] (pH 5.5) is -1.14; in series [1] (pH 6), -1.11; in series [1] (pH 6, modulator: ogerin), -2; in series [1] (pH 6.5, modulator: ogerin), -1.29. The surface expression score in series [2] was -2.35.
The matching figures for I145F: -0.817, -0.075, -1.25, -0.467 and -2.41.
I145E: the cAMP reporter score was -0.016 in series [1] (pH 5.5) and -0.565 in series [1] (pH 6).
In the case of I145N, the cAMP reporter score in series [1] (pH 5.5) was -0.537; in series [1] (pH 6.5, modulator: ogerin) it was -0.206. Further, the surface expression score in series [2] was -2.08.
On to I145R, for which the cAMP reporter score in series [1] (pH 5.5) is -0.423. Further, the surface expression score in series [2] was -2.19.
Consider I145H, for which the cAMP reporter score was -1.35 in series [1] (pH 5.5); -0.912 in series [1] (pH 6); -2.12 in series [1] (pH 6, modulator: ogerin); -1.29 in series [1] (pH 6.5, modulator: ogerin). In series [2], the surface expression score is -1.91.
I145G: the cAMP reporter score is -1.66 in series [1] (pH 5.5); -1.42 in series [1] (pH 6); -0.973 in series [1] (pH 6.5, modulator: ogerin). The surface expression score in series [2] is -2.21.
As to I145S, the cAMP reporter score in series [1] (pH 5.5) was -0.139; in series [1] (pH 6.5, modulator: ogerin) it was -1.32. In addition, the surface expression score in series [2] is -0.43.
For I145L, the cAMP reporter score in series [1] (pH 5.5) is 1.47; in series [1] (pH 6), -0.777; in series [1] (pH 6, modulator: ogerin), -0.604; in series [1] (pH 6.5, modulator: ogerin), -0.894. Further, the surface expression score in series [2] is -1.56.
In the case of I145M, the cAMP reporter score is -0.06 in series [1] (pH 5.5); 1.03 in series [1] (pH 6); -0.171 in series [1] (pH 6, modulator: ogerin); -0.687 in series [1] (pH 6.5, modulator: ogerin). In addition, the surface expression score in series [2] was -2.63.
Turning to I145T, the cAMP reporter score in series [1] (pH 5.5) was -0.6; in series [1] (pH 6, modulator: ogerin), -2.52; in series [1] (pH 6.5, modulator: ogerin), -1.17. Besides, the surface expression score in series [2] is -1.13.
I145V: the cAMP reporter score in series [1] (pH 5.5) was -0.691; in series [1] (pH 6), -0.621; in series [1] (pH 6, modulator: ogerin), -0.555; in series [1] (pH 6.5, modulator: ogerin), -0.746. Besides, the surface expression score in series [2] is -1.18.
For the variant I145A, the cAMP reporter score in series [1] (pH 5.5) was -2.38; in series [1] (pH 6, modulator: ogerin) it was -0.668; in series [1] (pH 6.5, modulator: ogerin), 0.188. In series [2], the surface expression score was -1.86.
I145Q: the cAMP reporter score in series [1] (pH 5.5) was -0.502; in series [1] (pH 6), -0.545; in series [1] (pH 6, modulator: ogerin), -1.16; in series [1] (pH 6.5, modulator: ogerin), -1.27. The surface expression score in series [2] was -1.75.
The matching figures for I145D: -0.954, -0.98, -0.532, -0.184 and -2.94.
As to I145P, the cAMP reporter score in series [1] (pH 5.5) was 0.246; in series [1] (pH 6.5, modulator: ogerin), -1.66. Moreover, the surface expression score in series [2] was -2.89.
On to I145K, for which the cAMP reporter score was -0.848 in series [1] (pH 5.5); -0.629 in series [1] (pH 6); -1.95 in series [1] (pH 6, modulator: ogerin); -1.31 in series [1] (pH 6.5, modulator: ogerin). Moreover, in series [2], the surface expression score is -2.29.
For I145C, the cAMP reporter score is -0.452 in series [1] (pH 5.5) and -3.02 in series [1] (pH 6). The surface expression score in series [2] was -3.03.
For the variant I145Y, the cAMP reporter score in series [1] (pH 5.5) was -1.39; in series [1] (pH 6), -1.4; in series [1] (pH 6, modulator: ogerin), -1.19; in series [1] (pH 6.5, modulator: ogerin) it was -0.352. For the same variant, in series [2], the surface expression score is -1.75.
Turning to I145W, the cAMP reporter score in series [1] (pH 5.5) is -1.18; in series [1] (pH 6), -1.4; in series [1] (pH 6, modulator: ogerin), -0.909; in series [1] (pH 6.5, modulator: ogerin), -0.667. Moreover, in series [2], the surface expression score was -2.14.
Taken in the same sequence, the figures for F132W were -0.077, -0.794, 0.062, -0.887 and -0.665.
Take F132Q: the cAMP reporter score was -1.03 in series [1] (pH 5.5); -0.439 in series [1] (pH 6); -1.21 in series [1] (pH 6, modulator: ogerin); -0.449 in series [1] (pH 6.5, modulator: ogerin).
Take F132K: the cAMP reporter score in series [1] (pH 5.5) is -1.44; in series [1] (pH 6) it was -1.76; in series [1] (pH 6, modulator: ogerin), -1.27; in series [1] (pH 6.5, modulator: ogerin), -1.62. Also, the surface expression score in series [2] is -2.
The matching figures for F132R: -0.843, -1.06, -0.599, -1.45 and -2.22.
Turning to F132P, the cAMP reporter score was -0.712 in series [1] (pH 5.5); -1.6 in series [1] (pH 6); -0.111 in series [1] (pH 6.5, modulator: ogerin). For the same variant, the surface expression score in series [2] was -1.3.
As to F132I, the cAMP reporter score in series [1] (pH 5.5) came out at 0.831; in series [1] (pH 6), 0.28; in series [1] (pH 6, modulator: ogerin) it was 0.775; in series [1] (pH 6.5, modulator: ogerin), 0.2. Moreover, the surface expression score in series [2] was -0.119.
On to F132T, for which the cAMP reporter score in series [1] (pH 5.5) is -0.864; in series [1] (pH 6), -0.609; in series [1] (pH 6, modulator: ogerin), -0.184; in series [1] (pH 6.5, modulator: ogerin) it was -0.328.
As to F132L, the cAMP reporter score in series [1] (pH 5.5) was -0.369; in series [1] (pH 6) it was -0.511; in series [1] (pH 6, modulator: ogerin), -0.091; in series [1] (pH 6.5, modulator: ogerin), -0.198. In addition, the surface expression score in series [2] is -0.572.
Taken in the same sequence, the figures for F132M were 0.816, -1.19, 0.438, -0.648 and -0.188.
